# Test results from PubChem BioAssay (NCATS).
# Inconclusive means that the source gave no clear call. Such entries were picked first, then a sample of the others. Potencies of inconclusive entries are doubtful fits and often do not repeat. The source made the active and inactive calls. Calls come from the whole dose curve; as a rule, active = well fitted curve in the direction sought with a large enough effect; inconclusive = small, poorly fitted or top-dose-only effect, or another doubt; inactive = no such curve, though single readings can be large; an effect the other way counts as inactive or inconclusive.
# How the values were obtained:
# [1] = qHTS of pediatric cancer cell lines to identify multiple opportunities for drug repurposing: Primary screen for RD cells (AID 1347104); note: nearly all actives have a fitted effect of over 55% in size
# Procedure, shortened: (§1)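 CRCs from 8- or 11-point titrations (lowest final 0.59 nM NPC, 0.78 nM MIPE). Cell viability: CellTiter-Glo after 48 h incubation, 15 min room-temperature development, luminescence imaging.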
# [2] = qHTS of pediatric cancer cell lines to identify multiple opportunities for drug repurposing: Primary screen for control Hh wild type fibroblast cells (AID 1347106); note: nearly all actives have a fitted effect of over 55% in size
# Procedure, shortened: (§2)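 Cells (500-1,000/well) in growth media were settled 5 h at 37 degrees C, then given compounds for 48 h. Viability was read as CellTiter-Glo luminescence. Primary runs used MIPE at 11 points (0.78 nM-46 µM) and NPC at 8 points (0.59 nM-46 µM); follow-ups used 11 points.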
# [3] = qHTS of pediatric cancer cell lines to identify multiple opportunities for drug repurposing: Primary screen for Rh30 cells (AID 1347107); note: nearly all actives have a fitted effect of over 75% in size
# Procedure, shortened: as §2
# [4] = qHTS of pediatric cancer cell lines to identify multiple opportunities for drug repurposing: Primary screen for Rh41 cells (AID 1347108); note: nearly all actives have a fitted effect of over 70% in size
# Procedure, shortened: as §1
# [5] = qHTS of pediatric cancer cell lines to identify multiple opportunities for drug repurposing: Confirmatory screen for BT-12 cells (AID 1347112); note: nearly all actives have a fitted effect of over 55% in size
# Procedure, shortened: as §2
# [6] = qHTS of pediatric cancer cell lines to identify multiple opportunities for drug repurposing: Primary screen for MG 63 (6-TG R) cells (AID 1347105); details: MG 63 (6-TG R) viability, CellTiter-Glo, 48 h; activity change, negative = cytotoxic: at 46 µM (top of the series) unless noted; note: nearly all actives have a fitted effect of over 50% in size; for activity change, negative = cytotoxic: % is set by controls: 0 for no effect and ±100 for the full control effect
# Procedure, shortened: as §1
# [7] = qHTS of pediatric cancer cell lines to identify multiple opportunities for drug repurposing: Confirmatory screen for NB1643 cells (AID 1347109); details: NB1643 neuroblastoma cell viability; activity change, negative = cytotoxic: at 45.9 µM (top of the series) unless noted; note: nearly all actives have a fitted effect of over 45% in size
# Procedure, shortened: as §2
# [8] = qHTS of pediatric cancer cell lines to identify multiple opportunities for drug repurposing: Confirmatory screen for SK-N-MC cells (AID 1347111);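 note: cells exposed to compound for 48 h before the readout; nearly all actives have a fitted effect of over 70% in size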
# Procedure, shortened: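 Metabolically active cells were quantified by ATP-dependent luminescence (CellTiter-Glo, 15 min at room temperature) following 48 h treatment. Cells had been plated at 500-1,000 per well and settled for 5 h beforehand.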
# Potency is the fitted concentration of half-maximal effect; tags give direction and shape of the fitted curve.
Compound,Potency [1],Potency [2],Potency [3],Potency [4],Potency [5],"activity change, negative = cytotoxic [6]",Potency [7],Potency [6],Potency [8]
CC[C@@]1(O)C(=O)OCc2c1cc1n(c2=O)Cc2cc3ccccc3nc2-1,active: 0.743 µM,"inconclusive: 1.66 µM [cytotoxic, full curve, poor fit]","inconclusive: 0.209 µM [cytotoxic, full curve]",active: 209 nM,active: 827 nM,–,–,–,–
CC(=Cc1csc(C)n1)[C@@H]1C[C@H]2O[C@@H]2CCC[C@H](C)[C@@H](O)[C@@H](C)C(=O)C(C)(C)[C@@H](O)CC(=O)O1,"inconclusive: 6.62 µM [cytotoxic, full curve]",–,–,"inconclusive: 1.3 nM [cytotoxic, full curve]","inconclusive: 46.5 nM [cytotoxic, full curve]",inconclusive: -63.1%,"inconclusive: 0.0147 µM [cytotoxic, full curve]",–,–
COC[C@H]1OC(=O)c2coc3c2[C@@]1(C)C1=C(C3=O)C2CCC(=O)[C@@]2(C)C[C@H]1OC(C)=O (some centres undefined),active: 18.7 µM,"inconclusive: 11.8 µM [cytotoxic, partial curve, poor fit]","inconclusive: 14.8 µM [cytotoxic, partial curve]",–,–,–,–,–,–
COc1ccc(C(=O)c2c(C)n(CCN3CCOCC3)c3cc(I)ccc23)cc1,active: 18.7 µM,–,–,active: 18700 nM,"inconclusive: 23300 nM [cytotoxic, partial curve, poor fit]",–,"inconclusive: 16.5 µM [cytotoxic, partial curve]","inconclusive: 9.35 µM [cytotoxic, partial curve, poor fit]","inconclusive: 29.3 µM [cytotoxic, single point]"
